# Data taken from ChEMBL document CHEMBL1201862, “PubChem BioAssay data set” (2004).
# System: NCI-H322M
# Assay: DTP human tumour cell line panel, 48 h
row,SMILES,GI50
1,COc1c2c(cc3occ(-c4ccc(CC=C(C)C)cc4)c(=O)c13)OC(C)(C)C=C2,inactive: > 100 µM
2,CC1C(c2ccccc2)=CCON1c1ccccc1 (stereo unspecified),inactive: > 100 µM
3,COc1cccc(NC(=O)CC(=O)n2nc(-c3ccccc3)c(/N=N/c3ccc(Cl)cc3)c2-c2ccccc2)c1,inactive: 24.3 µM
4,O=c1[nH]nc(Cc2ccccc2)n1/N=C/c1ccccc1Cl,inactive: > 100 µM
5,C#CC(O)/C=C/C(O)CCCC(O)CC#CC(O)C#CCCCCC(O)/C=C/CCCCCC(=O)CCCCCCCCCCCCCC(O)C(O)C#CC(=O)O (stereo unspecified),inactive: > 25 µM
6,CC(=O)O[C@@H]1[C@H]2O[C@H]2[C@H]2O[C@@]2(COC(=O)c2ccccc2)[C@H]1OC(C)=O,inactive: > 100 µM
7,CCCCCCCCC[C@@H]1C[C@@H]2CCC3C(C(=O)OC)=C(C)N=C(N1)N32 (stereo partly specified),inactive: 14.6 µM
8,C[C@H](N[C@H]1CCC[C@]1(O)C#Cc1ccc2c(c1)OCO2)c1ccccc1,inactive: > 25 µM
9,C=CC1(NS(=O)(=O)c2ccc(C)cc2)CCC(C(C)(C)C)CC1 (stereo unspecified),inactive: > 100 µM
10,CC(C)CC(C(N)=O)C(=O)NC(Cc1ccccc1)NC(=O)CNC(=O)C(C)NC(=O)C(N)Cc1ccc(O)cc1 (stereo unspecified),inactive: > 100 µM
11,Cc1cc(C)c(OC(=O)Nc2cccc3ccccc23)c(-c2ccccc2)c1,inactive: 43.8 µM
12,CO[C@H]1O[C@@H]2CO[C@@H](c3ccccc3)O[C@H]2C[C@]12CCC/C=C\CO2,inactive: 73.1 µM
13,Cc1cc(C)c2c(O)cc(-c3cccc(F)c3)nc2n1,active: 0.224 µM
14,CCOC(=O)C1(C)CCC(C(C(=O)O)C(=O)O)CC1=O (stereo unspecified),inactive: > 100 µM
15,CCCCCC/C=C\CCCCCCCCCc1c(O)c(OC)cc(O)c1CN(C)C,inactive: 16.2 µM
16,COc1cccc2c1C1(O)C2CCCC12OCCCO2 (stereo unspecified),inactive: > 100 µM
17,COC(=O)C1CCC(=O)N1C(c1ccc(OC)cc1)c1ccc(OC)cc1 (stereo unspecified),inactive: > 100 µM
18,CC(=O)OCc1ncccc1C(OC(C)=O)OC(C)=O,inactive: > 100 µM
19,CCCCCC(=O)n1[nH]c(=O)n(-c2ccc(OC)cc2)c1=O,inactive: > 100 µM
20,O=CNc1ncn[nH]1,inactive: > 100 µM
21,CCCC(=O)O[C@H]1C=C2C[C@@]34SS[C@]5(CC6=C[C@H](OC(C)=O)[C@@H]7O[C@@H]7[C@H]6N5C3=O)C(=O)N4[C@@H]2[C@H]2O[C@H]21,active: 0.0184 µM
22,CCOC(=O)C1CCn2c(nc3c(=O)n(C)c(=O)n(C)c32)S1 (stereo unspecified),inactive: > 100 µM
23,CC(=O)OCc1cc(=O)n2c([nH]c3ccccc32)c1C#N,inactive: > 100 µM

row,SMILES,GI50
1,Cc1ccc(C(=O)c2[nH]c(Nc3ccc(Cl)cc3)c(C(=S)Nc3ccccc3)c2N)cc1,inactive: 7.94 µM
2,CC1NC(/C(=C/c2ccccc2O)NC(=O)c2ccccc2)OC1=O (stereo unspecified),inactive: > 50 µM
3,COC(=O)C1(C(=O)OC)CC2=C(S(=O)(=O)c3ccccc3)C[C@@H](C#N)[C@H]2C1,inactive: > 100 µM
4,O=C1/C(=C/c2cccs2)N=C(c2ccccc2)N1C1Nc2cc3c(cc2S1)NC(N1C(=O)/C(=C/c2cccs2)N=C1c1ccccc1)S3 (stereo unspecified),inactive: 45.4 µM
5,CN1CCc2nc(N)nc(-c3nc(N)nc4c3CN(C)CC4)c2C1,inactive: > 100 µM
6,CCO/C([O-])=C(/C=O)[n+]1c(C)n(C)c2ccccc21,inactive: > 100 µM
7,COc1ccc(NC2=NCCO2)c2c1CCCC2,inactive: 37.6 µM
8,CC(C)=CCC[C@@H](C)C1=C(Nc2ccccc2Cl)C(=O)C(C)=C(O)C1=O,inactive: 4.57 µM
9,C=C(C(=O)OCC)C(=O)OCC,inactive: > 100 µM
10,CC(=O)CCCCC(=O)Nc1ccc(CC(NC(=O)OC(C)(C)C)C(=O)NCC(=O)OCc2ccccc2)cc1 (stereo unspecified),inactive: 37.1 µM
11,NS(=O)(=O)c1ccc(NC(=O)CC(=O)Nc2ccc(S(N)(=O)=O)cc2)cc1,inactive: > 100 µM
12,C/C=C1/C=CC2c3[nH]c4ccccc4c3CCN2C1 (stereo unspecified),inactive: > 400 µM
13,COc1cc(C2C3=C(COC3=O)OC(C)(C)Oc3cc4c(cc32)OCO4)cc(OC)c1OC (stereo unspecified),active: 0.486 µM
14,C=CCC(CNC(=O)OCc1ccccc1)O[Si](C)(C)C(C)(C)C (stereo unspecified),inactive: 55.1 µM
15,COc1ccc(OCC(=O)O)c(C(=O)CCC(=O)O)c1,inactive: > 100 µM
16,CCOP(=O)(OCC)C1CC(C)OC1=O (stereo unspecified),inactive: > 100 µM
17,O=C(Oc1ccccc1)N1c2ccccc2[C@@]23O[C@]24CCC[C@H]3C#C/C=C\C#C[C@H]14,inactive: > 10 µM
18,CC(C)(C)C1CCC(=O)/C(=C/CC2CC(=O)N(c3ccccc3)C(=O)C2)C1 (stereo unspecified),inactive: 20 µM
19,CCOC(=O)[N-]c1ccc(S(=O)(=O)[O+](C)CCl)cc1.CCOC(=O)[N-]c1ccc(S(=O)(=O)[O+](C)CCl)cc1.NC(=O)N=O.NC(=O)OCCCl,inactive: > 100 µM
20,CCCCN1C(=O)CC2[C@@H]3CCc4cc(OC(C)=O)ccc4C3CC[C@]2(C)C1=O (stereo partly specified),inactive: > 10 µM
21,CCOc1cccc(-c2cc(O)c3cc4c(cc3n2)OCO4)c1,active: 0.603 µM
22,COc1cccc(NC(=O)C(C)(C)C)c1SSc1c(NC(=O)C(C)(C)C)cccc1OC,inactive: > 100 µM
23,CCc1ccccc1NC(=O)C(=O)C1C(=O)N(c2ccccc2)N=C1N (stereo unspecified),inactive: > 100 µM

row,SMILES,GI50
1,CCOC(=O)c1nc2cc(C(F)(F)F)ccc2nc1Nc1ccc(F)cc1,inactive: 54.8 µM
2,CCc1nc(N)nc(N)c1-c1ccc(NCCN)c([N+](=O)[O-])c1,inactive: 8.13 µM
3,CC(C)(S)C(N)C(=O)O (stereo not drawn) [DL-PENICILLAMINE],inactive: > 100 µM
4,COc1cccc(N2C(=O)CSC2c2c[nH]c3ccccc23)c1 (stereo unspecified),inactive: > 100 µM
5,CC1(C)CC(=O)C(=CNc2nc(-c3cccc([N+](=O)[O-])c3)cs2)C(=O)C1,inactive: 51.2 µM
6,COc1ccc(NC(=O)/C(CC2=Nc3ccc([N+](=O)[O-])cc3NC2O)=N\NC(=O)C[N+](C)(C)C)c(OC)c1 (stereo unspecified),inactive: > 100 µM
7,O=[N+]([O-])c1ccc2[nH]c(-c3ccc(Cl)cc3)nc2c1,inactive: 28.9 µM
8,CCOC(=O)C(N=C(c1ccccc1)c1ccccc1)N(C(=O)OC(C)(C)C)C(=O)OC(C)(C)C (stereo unspecified),inactive: > 100 µM
9,O=C1N=C(Nc2ccccc2Cl)SC1C(=O)Nc1ccc([N+](=O)[O-])cc1[N+](=O)[O-] (stereo unspecified),inactive: > 100 µM
10,N#Cc1c2ccc([N+](=O)[O-])cc2c(=O)n2c1sc1ccccc12,inactive: 19.8 µM
11,COC(=O)C1=C(O)c2cc3c(cc2[C@H](c2cc(OC)c(OC)c(OC)c2)C1)OCO3,inactive: > 100 µM
12,COc1cc(-c2cc(CCC(=O)Nc3ccccc3[N+](=O)[O-])n(-c3ccc([N+](=O)[O-])cc3[N+](=O)[O-])n2)ccc1O,inactive: > 10 µM
13,COC(NC(=O)Nc1ccccc1C)(C(F)(F)F)C(F)(F)F,inactive: > 100 µM
14,CCOC(=O)N(CC)c1c(C(F)(F)F)cc(-c2ccccc2)[nH]c1=O,inactive: 71.3 µM
15,COC(=O)CSc1nnc(-c2ccccc2)[nH]1,inactive: > 100 µM
16,O=C(NCCC(F)(F)C(F)(F)C(F)(F)C(F)(F)F)NC1OC(CO)C(O)C(O)C1O (stereo unspecified),inactive: > 100 µM
17,Cc1cc(S(=O)(=O)O)ccc1/N=N/c1c(O)ccc2ccccc12,inactive: > 100 µM
18,Nc1nc2c(c(=O)[nH]1)NC(CO)CN2 (stereo unspecified),inactive: > 100 µM
19,OCCCCCCCCCCCOc1ccc(C2OCC3(CO2)COC(c2ccc(OCCCCCCCCCCCO)cc2)OC3)cc1 (stereo unspecified),inactive: > 50 µM
20,Nc1nc(N)c2c(n1)CCC(S(=O)(=O)c1ccc3ccccc3c1)C2 (stereo unspecified),inactive: 5.78 µM
21,CCc1cc(C)cc2[n+]1CC=C2C.[O-][Cl+3]([O-])([O-])[O-],inactive: > 100 µM
22,CN(c1ccccc1)S(=O)(=O)c1ccccc1[N+](=O)[O-],inactive: > 100 µM
23,COc1ccc(OC)c2cc(Cc3ccc(N(C)C)cc3)c(=O)c(Cc3ccc(N(C)C)cc3)cc12,inactive: > 100 µM

row,SMILES,GI50
1,O=C(CCc1ccccc1)On1nnc2ccccc2c1=O,inactive: > 100 µM
2,O=[N+]([O-])c1cnn(C2=CNc3ccccc3N=C2)c1,inactive: > 100 µM
3,c1ccc(C(c2ccccc2)c2cccnc2)cc1,inactive: > 100 µM
4,CCC1(c2ccc(OC)c(OC)c2)CCN(S(=O)(=O)c2ccc(C)cc2)C1 (stereo unspecified),inactive: > 100 µM
5,CCCCc1c2c(nc3c1CCc1cc(C=O)c(N)nc1-3)/C(=C/c1ccccc1)CCC2,inactive: > 100 µM
6,CNC(=O)OCc1c2ccncc2c(C)c2c1[nH]c1ccc(OC)cc12,active: 0.547 µM
7,O=S1(=O)CC#CC[C@@H](CO)[C@@H](CO)CC#CC1,inactive: > 100 µM
8,O=C1Nc2cc([N+](=O)[O-])ccc2C(=O)N2CCC[C@@H]12,inactive: > 100 µM
9,Oc1cccc(-c2nc3cc(F)ccc3s2)c1,inactive: 20.9 µM
10,COc1ccc2oc(C(=O)O)c3c2c1CCC3CCC(=O)O (stereo unspecified),inactive: > 100 µM
11,CC(=O)OCC(OC(C)=O)C(OC(C)=O)C(OC(C)=O)C(=O)CNn1c(-c2ccc(C)cc2)nc2ccccc2c1=O (stereo unspecified),inactive: > 100 µM
12,Nc1ccc(CCSSCCc2ccc(N)cc2)cc1,inactive: 5.06 µM
13,Cc1ncc([N+](=O)[O-])n1CCNCCCn1ccnc1[N+](=O)[O-],inactive: > 100 µM
14,COc1cc2c(NCCCCCCO[N+](=O)[O-])ncnc2c(OC)c1OC,inactive: 24.5 µM
15,Cc1ccc(O)c(C(c2ccc([N+](=O)[O-])cc2)c2cc(C)ccc2O)c1,inactive: 18.6 µM
16,CC1=C(C(=O)Nc2ccccc2)C(c2cccc3ccccc23)C(C(=O)Nc2ccccc2)=C(C)N1,inactive: 32.4 µM
17,CC(C)=NNc1snnc1C(N)=O,inactive: > 100 µM
18,S=c1[nH]c2c(Cl)c(Cl)c(Cl)c(Cl)c2[nH]1,inactive: 25.7 µM
19,C/C(CC(=O)Nc1ccc(NC(=O)C/C(C)=N\NC(N)=O)cc1)=N/NC(N)=O,inactive: > 100 µM
20,CCN1C(=O)c2ccccc2C1(O)c1ccc(Cl)cc1 (stereo unspecified),inactive: 34.4 µM
21,ONCCCn1cnc2c(NC3CC3)ncnc21,inactive: > 100 µM
22,O=C1CCC2(c3ccc(F)cc3)Nc3cc(Cl)ccc3N12 (stereo unspecified),inactive: > 100 µM

#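 The compound was tested at five concentrations on cells cultured in 96-well plates, with a 48-hour exposure period. GI50 = concentration required for 50% inhibition of growth.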 Activity calls are given as the source filed them. No stated cut-off is given here; in the data, active = GI50 up to about 1.1 µM and inactive = higher.
